From PMC4336329 (PLoS ONE, 2015)
Hit rate of the full screen: of about 310,000 compounds, about 2,200 (0.71%) showed an effect of 50% or more. The effect is printed as a negative number. The list shows a part of the results.

What follows are compounds tested against human ether-à-go-go-related gene (hERG) potassium channel (human, UniProt Q12809) (assay: primary screen, population patch clamp on CHO cells stably expressing hERG).
Sequence of human ether-à-go-go-related gene (hERG) potassium channel (Q12809 whole entry, looked up): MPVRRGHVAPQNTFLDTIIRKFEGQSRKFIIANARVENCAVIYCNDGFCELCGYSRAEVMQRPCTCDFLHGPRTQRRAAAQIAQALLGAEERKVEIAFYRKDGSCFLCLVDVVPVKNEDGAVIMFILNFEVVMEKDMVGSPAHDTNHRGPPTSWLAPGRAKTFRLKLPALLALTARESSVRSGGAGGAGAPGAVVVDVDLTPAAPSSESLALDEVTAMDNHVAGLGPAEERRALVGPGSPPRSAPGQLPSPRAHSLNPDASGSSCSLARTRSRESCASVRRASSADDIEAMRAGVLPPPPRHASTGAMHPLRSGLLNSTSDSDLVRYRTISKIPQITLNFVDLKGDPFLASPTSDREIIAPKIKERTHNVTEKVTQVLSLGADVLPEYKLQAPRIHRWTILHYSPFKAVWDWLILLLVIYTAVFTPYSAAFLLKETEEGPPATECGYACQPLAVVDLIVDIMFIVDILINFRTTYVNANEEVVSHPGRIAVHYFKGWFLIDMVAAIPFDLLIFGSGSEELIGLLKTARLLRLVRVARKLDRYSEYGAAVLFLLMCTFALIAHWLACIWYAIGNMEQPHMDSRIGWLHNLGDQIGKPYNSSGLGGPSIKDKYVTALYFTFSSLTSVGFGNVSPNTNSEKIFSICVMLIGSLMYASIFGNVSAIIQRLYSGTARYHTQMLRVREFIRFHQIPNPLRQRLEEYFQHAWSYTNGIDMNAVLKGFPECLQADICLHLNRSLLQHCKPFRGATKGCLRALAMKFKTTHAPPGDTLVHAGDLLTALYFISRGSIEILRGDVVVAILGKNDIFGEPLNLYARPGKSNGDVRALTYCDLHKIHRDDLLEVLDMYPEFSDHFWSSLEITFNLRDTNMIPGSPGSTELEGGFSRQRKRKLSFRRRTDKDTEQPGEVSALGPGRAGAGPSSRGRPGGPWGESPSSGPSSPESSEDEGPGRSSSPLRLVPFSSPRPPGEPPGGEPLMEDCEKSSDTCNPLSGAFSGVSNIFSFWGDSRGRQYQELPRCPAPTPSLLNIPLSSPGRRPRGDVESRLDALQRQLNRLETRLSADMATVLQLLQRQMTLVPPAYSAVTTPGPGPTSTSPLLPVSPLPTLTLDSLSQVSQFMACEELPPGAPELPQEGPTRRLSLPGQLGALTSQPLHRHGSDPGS

SMILES	hERG current change (%, negative = inhibition) at 1uM [%]
CC(C)(C)c1cc(C(=O)NCC(=O)OCC(=O)c2cccc([N+](=O)[O-])c2)cc(C(C)(C)C)c1	13.2
CC1(C)CC(O)C(C(O)c2cccc([N+](=O)[O-])c2)C(C)(C)N1 (centres unmarked)	22.9
Cc1cccc(C(=O)OCC(=O)NCCCc2ccccc2)c1	12.6
CCOC(=O)c1[nH]c2ccc(OC)cc2c1NC(=O)c1ccccc1C(=O)O	14
COCC(=O)Nc1ccc2nc3n(c(=O)c2c1)CCCCC3	11.3
Cc1nc(C(=O)N(C)C)nn1-c1cc(Cl)ccc1Cl	15.6
CCCCC(CCC(=O)O)(C(=O)OCC)c1csc(Nc2ccccc2)n1 (centres unmarked)	11.3
O=C(c1cccc(N2C(=O)C3C4C=CC(C4)C3C2=O)c1)N1CCN(c2ccccc2Cl)CC1 (centres unmarked)	12.2
CC1=C(C#N)CCC(=O)N1Cc1c(C)cc(C)cc1C	9.07
Cc1ccc(C(C)n2cc(C(=O)NCc3cccnc3)nn2)cc1 (centres unmarked)	3.85
CC(C)n1c(/C=C/c2ccccc2)nc2ccccc21	2.24
COc1ccc(NC(=O)c2nc[nH]c2C(=O)NCCCCCNC(=O)OC(C)(C)C)cc1	18.2
O=C(COC(=O)C1CC1)Nc1ccc(Oc2ccccc2)cc1	8.39
Clc1cccc(Cl)c1OCCCCN1CCCCC1.O=C(O)C(=O)O	0.923
CNC(=O)c1cccc2cccc(Sc3ccccc3C(=O)O)c12	2.7
Cc1ccccc1NC(=O)C1C2C=CC(C3CC23)C1C(=O)O (centres unmarked)	9.39
COc1ccc(-c2c(-c3cc(OC)cc(OC)c3)n(C)c3ccc(-c4ccn[nH]4)cc23)cc1	6.44
CCOC(=O)CCc1c(C)nc2cc(C3CCCN(C(=O)OC(C)(C)C)C3)[nH]n2c1=O (centres unmarked)	15.4
O=C(/C=C/c1ccco1)c1ccc(O)cc1	-3.25
O=C(/C=C/c1ccc(F)cc1)Nc1cc(S(=O)(=O)N2CCOCC2)ccc1N1CCCC1	-60.3
CC(=O)Oc1ccc(C(=O)OCC(=O)c2c(N)n(C)c(=O)n(C)c2=O)cc1OC(C)=O	9.99
c1ccc(-c2ccc3c(c2)NC(C2Nc4cc(-c5ccccc5)ccc4O2)O3)cc1 (centres unmarked)	10.8
CC(=O)c1c(C)n(-c2ccccc2Br)c2ccc(O)cc12	13

SMILES	hERG current change (%, negative = inhibition) at 1uM [%]
CN(C)/C=N/c1c(C#N)cnn1-c1ccccc1	11.3
Cc1ccc(C(=O)/C=C\NCc2ccccc2)cc1	7.27
C#CCOCCOCCOCCNc1nc(N2CCN(C(=O)[C@H](C)n3cc(CCC[NH+]=C(N)N)nn3)CC2)nc(N2CCN(C(=O)[C@H](Cc3ccc(O)cc3)n3cc(CCO)nn3)CC2)n1.[Cl-]	15.2
CCCc1nnc(NC(=O)CCC(=O)Nc2ccc(Cl)cc2)s1	14.7
O=C(Nc1ccc(Oc2ccccc2)nc1)C1CCN(Cc2ccccc2)CC1	-4.63
c1ccc(Cn2c(NCc3ccccn3)nc3ccccc32)cc1	-15.3
S=C(NCCCN1CCOCC1)NC1CCCC1	14.5
Cc1cc(C(=O)CN2C(=O)C(=O)N(CC(C)C)C2=O)c(C)n1-c1ccccc1F	2.27
O=C(Cc1c(F)cccc1Cl)NCCc1c[nH]c2ccccc12	15.5
CCOC(=O)c1oc2nc(CC(C)C)c3c(c2c1N)CCCC3	13.1
Cn1c(=O)n(C)c2cc(S(=O)(=O)Nc3ccc(F)cc3)ccc21	11.9
O=C(CC1Sc2ccccc2NC1=O)OC(C(=O)NCCc1ccccc1)c1cccnc1 (centres unmarked)	0.0089
Cc1ccc(NC(=O)NC2(C(=O)NCc3ccco3)CCCCC2)cc1	7.84
Cc1ccc(C)c(N(CC(=O)NC2CCCC2)C(=O)CNC(=O)c2cccs2)c1	5.87
COc1ccc(/C=C2/SC(=O)N(CCC(=O)Nc3ccc(S(=O)(=O)Nc4nccs4)cc3)C2=O)cc1	4.87
Cc1ccc(-c2cc(C(=O)NCc3ccc4c(c3)OCO4)[nH]n2)c(O)c1C	4.07
COC(Cc1n[nH]c(=S)n1-c1ccccc1)OC	1.63
COc1ccc(C(=O)Nc2ccc(C)cn2)c(OC)c1	3.95
CC(C)CN1C2CCCC1CC(NC(=S)NCc1ccco1)C2 (centres unmarked)	0.305
Cc1cccc(/C=N/NC(=O)c2ccc(NC(=O)c3ccccc3Cl)cc2)n1	23.4
CC(C(=O)NCCC1=CCCCC1)c1ccc([N+](=O)[O-])cc1 (centres unmarked)	9.6
COc1ccccc1CCNC(=O)CCC(=O)N1CC2C[C@@H](C1)Cn1c2cccc1=O	7.67
Cc1ccn2c(CNCC3COCCO3)c(C(=O)N3CCCCCC3)nc2c1 (centres unmarked)	31.3

SMILES	hERG current change (%, negative = inhibition) at 1uM [%]
O=C(Nc1ccccc1F)NC1CCCc2ccccc21 (centres unmarked)	3.4
CC(=O)N(CCN(C)C)c1nc2cc3c(cc2s1)OCCO3.Cl	9.03
CN(C(=O)/C(N=Nc1cccc(C(F)(F)F)c1)=C(\O)C(F)(F)F)c1ccccc1	8.42
CCC(C)N(C)C1CCN(C(=S)Nc2cccc(OC)c2)CC1 (centres unmarked)	15.9
CCCn1c(C(=O)c2ccc(OC)cc2)nc2ccccc21	9.45
CCOC(=O)C(CC)n1cnc2c(nnn2-c2cccc(OC)c2)c1=O (centres unmarked)	12
COc1ccc(/C=C/C(=O)NC2CCN(Cc3ccccc3)CC2)cc1OC	12
Cc1nn(C)c(C(=O)N2CCc3ccccc32)c1Br	4.79
COc1ccc(/C=N/NC(=O)CN2CCCc3ccccc32)c(OC)c1	7.48
COc1cc(NC2c3ccccc3C(=O)N2Cc2ccccc2Cl)cc(OC)c1 (centres unmarked)	2.53
O=C(Cc1ccccc1)NCc1n[nH]c(=S)n1-c1ccccc1	20.5
COc1ccccc1CCC(=O)N1CCC(n2nccc2NC(=O)C2CCOC2)CC1 (centres unmarked)	15
CCc1cccc(OCC(O)Cn2c(N3CCCCC3)nc3c2c(=O)[nH]c(=O)n3C)c1 (centres unmarked)	17.9
CCn1c(C)c(C(C)=O)c(SC)nc1=S	8.57
COc1ccc(/C=N/NC(=O)c2ccco2)cc1COc1ccc(F)cc1	12.3
CC1CCN(S(=O)(=O)c2ccc3c4c2CC(=O)N4CC(C)S3)CC1 (centres unmarked)	15.5
COc1ccc(C2C(C(N)=O)=C(C)Nc3nc(-c4ccccc4Cl)nn32)c(OC)c1 (centres unmarked)	0.881
CCOc1ccc2ccccc2c1/C=N/NC(=O)CNC(=O)C(c1ccccc1)c1ccccc1	12.2
CCCc1cc(=O)[nH]c(SCC(=O)N(CC(C)C)C2CCS(=O)(=O)C2)n1 (centres unmarked)	3.9
CCCc1cc(=O)[nH]c2nnc(SCC(=O)N3CC(C)OC(C)C3)n12 (centres unmarked)	16.2
CCN(CC)CCCNC(=O)Cn1ncn2cccc2c1=O	17.3
CN(C)c1ccc(NC(=O)c2ccc([N+](=O)[O-])cc2Cl)cc1	-3.73
CC(C)c1nnc(NC(=O)CCC(=O)NC2CCCCCCC2)s1	0.952

SMILES	hERG current change (%, negative = inhibition) at 1uM [%]
Cc1c(C#N)c2ccccc2n1CC(=O)O	11.6
Cc1ccc(C(=O)NCCC2=CCCCC2)cc1S(=O)(=O)N1CCCCC1	9.63
CC(NC(=O)c1ccc2c(c1)C(=O)N(Cc1cccnc1)C2=O)c1ccccc1 (centres unmarked)	17.4
CC(C)(C)/C(O)=C/c1nc2ccccc2oc1=O	13.8
C=CCCC(=O)N1CCCC(C(=O)c2cccc(OC)c2)C1 (centres unmarked)	4.92
COc1ccccc1Nc1ccc(C(=O)NCc2cccs2)cn1	3.94
COc1ccccc1N1CCN(C(c2ccc(N(C)C)cc2)c2nnnn2CCc2ccccc2)CC1 (centres unmarked)	19
O=C(Nc1cscc1S(=O)(=O)c1ccc(Cl)cc1)c1ccccc1Cl	13.6
O=C(COC(=O)C1CCN(c2ccc(C(F)(F)F)cn2)CC1)NC1CCCCC1	9.1
CCc1ccc(NC(=O)c2noc3c2CCC3)cc1	21
Cn1nnnc1SCC(=O)N1CCCc2ccccc21	10.7
O=C(Cn1c(=S)[nH]c2ccccc21)c1ccccc1	6.39
C=CCn1c(-c2ccoc2)n[nH]c1=S	12
COc1ccc2cc(C(=O)O)n(CC(=O)c3ccccc3)c2c1	10.9
COC(=O)c1cc(NC(=O)c2ccco2)ccc1N1CCOCC1	12.4
Cc1cccc(NC(=O)Cn2nnc3sc4c(c3c2=O)CC(C)(C)OC4)c1	13
Cc1ccccc1-c1ccc(Nc2ccc(N3CCOCC3)cc2)nn1	-38.5
COc1ccc(CC(=O)NNC(=S)NCC2CC2)cc1OC	10.1
COC(=O)c1ccc(C2C(C(=O)c3ccco3)=C(O)C(=O)N2CC2CCCO2)cc1 (centres unmarked)	3.07
COc1ccccc1NC(=O)CCC(=O)OCc1ccc(Cl)cc1	1.54
